This note sets out measurements from PubChem BioAssay AID1240 (Sanford-Burnham Center for Chemical Genomics, 2008).

The structures appear in SMILES notation. About 800 (1.6%) of roughly 50,000 compounds showed an effect of 50% or more. Some of the results follow.

For the test, the target named is Bcl-2-like protein 10 (Homo sapiens) (UniProt Q9HD36). Briefly: TR3 peptide-Bcl-B binding displacers, biochemical primary FP assay, phenotype converters (AID 1240).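 Note: 0% = Bcl-B with tracer peptide and DMSO and 100% = tracer peptide lacking Bcl-B.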 Conditions: GST-Bcl-B / FITC-TR3 peptide fluorescence polarization; stronger effect = higher value; compound at 3.75 mg/L. For orientation: In fluorescence polarisation assays a small probe gives low polarisation when free and higher when bound to something large.
Sequence of UniProt Q9HD36 (Q9HD36 whole entry, looked up): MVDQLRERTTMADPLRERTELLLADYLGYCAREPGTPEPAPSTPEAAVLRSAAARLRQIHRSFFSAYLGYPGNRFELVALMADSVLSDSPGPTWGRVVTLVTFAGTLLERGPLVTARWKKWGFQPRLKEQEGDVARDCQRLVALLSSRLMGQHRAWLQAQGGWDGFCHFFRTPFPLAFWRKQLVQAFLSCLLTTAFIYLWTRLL
Take `C=CCn1c(-c2ccccc2)c(NC(=O)c2ccccc2)sc1=Nc1cccc(Cl)c1`: the displacement turned out to be 1.7%.
`CS(=O)(=O)c1nnnn1-c1cccc2ccccc12`: the displacement was found to be 7.2%.
The result for `COc1ccc2oc(=O)c(C(=O)Nc3ccc(C(C)=O)cc3)cc2c1` reads 17.6%; that for `CC(C)(C)c1ccc(OCCOc2ccc(/C=N/N3C(=O)CSC3=S)cc2)cc1`, -18.3%.
With `COc1ccc(/C=N\NC(=O)CNc2ccccc2C)cc1`, the displacement was 0.5%.
Turning to `COCCNC(=O)CN(c1c(C)cccc1C)S(C)(=O)=O`, the displacement came to 6.4%.
In the case of `COc1ccc(/C(C)=N/N=C2/NC(=O)C(CC(=O)Nc3ccc(C)cc3)S2)cc1` (centres undefined), the displacement was -27.9%.
On to `S=C(Nc1ccc2nc(-c3ccccc3)c(-c3ccccc3)nc2c1)N1CCN(c2ccccn2)CC1`, for which the displacement is 10%.
Then `CCOc1cc(C(=O)NC2CC2)cc(OCC)c1OCC`, with -2.5%; and `COC(=O)c1cccc(NC(=O)c2ccc3c(c2)C(=O)N(C(C)(C)C)C3=O)c1`, with -14.8%.
Turning to `O=C(Nc1nc2ccccc2n1CCOc1ccccc1)c1ccccc1F`, the displacement is 25%.
In the case of `Cn1c(=O)n(C)c2cc(C3Nc4ccc5ccccc5c4C4=C3C(=O)CC(C)(C)C4)ccc21` (centres undefined), the displacement was determined as 40.4%.
On to `CC1(C)NC(=O)N(CC(O)COc2ccc(Cl)cc2)C1=O` (centres undefined), for which the displacement was -3.3%.
On to `NC(=O)c1c(NC(=O)c2ccccc2[N+](=O)[O-])sc2c1CCCCCC2`, for which the displacement worked out at 1%.
Regarding `Cc1cc(NS(=O)(=O)c2ccc(NC(=O)c3cccc(Br)c3)cc2)no1`, the displacement came to 9.5%.
On to `CCOc1ccc(N2C(=O)/C(=C/c3ccc(-c4cc([N+](=O)[O-])ccc4Cl)o3)C(=O)NC2=S)cc1`, for which the displacement is -4.6%.
Take `CC(C)NC(=O)C12CC3CC(C1)CC(C(=O)NC(C)C)(C3)C2`: the displacement was determined as 1.3%.
For `O=C(/C=C/c1ccc(-c2cccc([N+](=O)[O-])c2)o1)Nc1ccc(Cl)cc1`, the displacement amounted to 4.5%.
As to `COc1cc([N+](=O)[O-])ccc1NC(=O)c1ccc(S(=O)(=O)N2CC(C)OC(C)C2)cc1` (centres undefined), the displacement worked out at 9.6%.
With `Cc1ccc(-c2cc(-c3ccncc3)c(C#N)c(N)c2C#N)cc1`, the displacement is 21.2%.
As for `CCOc1ccccc1C(=O)Nc1nc(-c2ccc(Br)cc2)cs1`, the displacement was determined as 0.6%.
As to `CCCCOc1ccc(C(=O)Nc2cccc(-c3nc4cc(C)ccc4o3)c2C)cc1`, the displacement was -0.3%.
Then `O=[N+]([O-])c1cc2c(cc1CC1CC1(Cl)Cl)OCCO2` (centres undefined), with 23.5%; and `COc1ccc(OCC(O)COc2ccc(C(=O)O)cc2)cc1` (centres undefined), with -3.8%.
Then `COc1nccnc1NS(=O)(=O)c1ccc(N=Cc2c(C)[nH]n(-c3ccc(C)c(C)c3)c2=O)cc1`, with 8.6%; and `CCSc1nnc(NC(=O)C2C3CCC(C3)C2C(=O)O)s1` (centres undefined), with -2.4%.
Then `COc1ccc(S(=O)(=O)Nc2ccc3ccccc3c2)cc1OC`, with -9.2%; and `CC(=O)c1cccc(N=Cc2nc(-c3ccccc3)oc2O)c1`, with 3.2%; and `O=C(NCc1cccnc1)c1ccc(Br)o1`, with -0.6%.
Turning to `Cc1cccc(NC(=O)Cc2ccccc2)c1C`, the displacement was found to be 17.7%.
Then `O=C(/C=C(\O)c1ccc(F)cc1)C(F)(F)F`, with 3.5%.
`COc1cc(/C=N/NC(=O)C(O)(c2ccccc2)c2ccccc2)c(Br)cc1OCC(=O)O`: the displacement is -11.6%.
The result for `Cc1ccc(/C=N/NC(=O)c2cccc(F)c2)c(O)c1` reads -3.8%; that for `CCOc1cccc(-c2cc(C(=O)NCCCN3CCOCC3)c3ccccc3n2)c1`, -4.5%; that for `Cc1cc(OCCN2CCCCC2)cc(C)c1Cl`, 9%.
With `COc1ccc(C2Nc3ccccc3C(=O)N2Cc2ccccc2)cc1COc1ccc([N+](=O)[O-])cc1` (centres undefined), the displacement came out at 15.4%.
Regarding `O=C(O)CCCc1nc2ccccc2[nH]1`, the displacement was found to be 9.2%.
As to `O=C(COc1ccccc1[N+](=O)[O-])Nc1cccc(NC(=O)c2ccc(Cl)cc2Cl)c1`, the displacement was -11.3%.
Then `CC(=O)Nc1ccc(S(=O)(=O)Nc2cc(C)ccc2C)cc1`, with 6.3%; and `Cc1c(NC(=O)c2cccc(I)c2)cccc1[N+](=O)[O-]`, with -7.8%; and `COc1ccc(CCNC(=O)CSCC(=O)Nc2ccccc2)cc1OC`, with -13.8%.
Take `Nc1ccc2nc(SCc3nc4ccccc4[nH]3)sc2c1`: the displacement was -11.3%.
For `Cc1ccc(OCC(=O)Nc2ccc(I)cc2Cl)cc1C`, the displacement stood at 10.2%.
Turning to `COc1ccc(CC(=O)Nc2cc(C)cc(C)c2)cc1OC`, the displacement worked out at 7.8%.
Consider `Cc1ccc(N2C(=O)C(=O)/C(=C(/O)c3ccccc3)C2c2ccc(O)cc2)cc1Cl` (centres undefined), for which the displacement was -3.5%.
The result for `O=C(Nc1ccccc1)C1C(c2ccccc2)C1(Cl)Cl` (centres undefined) reads 2.7%; that for `O=C1CCC(=O)N1CNc1ccc(F)cc1`, 12.6%; that for `O=C(NC(=S)Nc1ccc2oc(-c3ccc(Cl)c(Cl)c3)nc2c1)c1ccccc1`, 20%.
Consider `CS(=O)(=O)c1ccc2nc(NC(=O)c3cccc(Br)c3)sc2c1`, for which the displacement was -13.8%.
`O=C(CN(c1cccc(Br)c1)S(=O)(=O)c1ccccc1)Nc1cccc(Cl)c1`: the displacement is -0.2%.
Turning to `O=C(c1ccc(Cl)cc1)N1CCN(c2ccc([N+](=O)[O-])c(Sc3cccc4cccnc34)c2)CC1`, the displacement worked out at 14.1%.
Take `O=C(CN1C(=O)c2ccccc2C1=O)NCc1ccc(C(=O)O)cc1`: the displacement is -7.3%.
Consider `COc1cccc(N2C(=O)/C(=C/c3ccccc3[N+](=O)[O-])SC2=S)c1`, for which the displacement was -2.3%.
Turning to `COc1ccc(CCN2C(=O)/C(=C3/C(=O)N(C)c4ccccc43)SC2=S)cc1OC`, the displacement is -3.1%.
The result for `Cc1ccc(-c2nc3ccc(Cl)cc3o2)cc1NC(=O)c1ccccc1F` reads -6.4%; that for `COc1ccc(Nc2nc(-c3ccc4ccccc4c3)cs2)cc1`, -6.2%; that for `CCOC(=O)c1c(-c2cccs2)csc1NC(=O)c1ccc(F)cc1`, 14.9%.
Regarding `CCOC(=O)C1=C(O)/C(=C/c2cccnc2)SC1=Nc1ccc(Cl)cc1`, the displacement was 41.1%.
For `O=C(/C=C\Nc1ccc(Br)cn1)c1ccc(Cl)cc1`, the displacement is 61.9%.
In the case of `Cc1nc2ccccc2n1S(=O)(=O)c1ccc(Br)cc1`, the displacement was 17.1%.
Take `COc1ccc(C2/C(=C(\O)c3ccccc3)C(=O)C(=O)N2Cc2cccnc2)c(OC)c1` (centres undefined): the displacement is -7.9%.
With `C=C(C)CNC(=S)NNC(=O)COc1cccc(C)c1`, the displacement is -7.9%.
Consider `Cc1cc(OCC(=O)Nc2cc(Cl)cc(Cl)c2)ccc1Cl`, for which the displacement was -0.7%.
As for `NC1=NC(=O)/C(=C\c2ccc(-c3cccc(Cl)c3)o2)S1`, the displacement came to 5.1%.
Regarding `COC(=O)c1ccccc1-c1ccc(C=O)o1`, the displacement was 0.4%.
Turning to `CCOc1cc2oc(=O)cc(-c3ccccc3)c2cc1CC`, the displacement was 15.5%.
In the case of `COc1ccc(OC)c(C2/C(=C(\O)c3ccccc3)C(=O)C(=O)N2CCN(C)C)c1` (centres undefined), the displacement is -6.4%.
Then `COc1cccc(OC)c1C(=O)Nc1cc(Cl)cc(Cl)c1`, with -5.4%; and `COc1ccc2c(c1)-c1c(ssc1=S)C(C)(C)N2C(=O)CC(C)C`, with 3.2%.
